Values marked as one replicate rest on one cluster of the flow cell; about a third of the high ones do not repeat.
System: ATP
Assay: switch fluorescence ratio, 500 uM ATP over buffer (Cy3 cluster intensity, sum of 5 cycles each) (fold (ratio)); higher = stronger signal-on switching upon ATP binding; sequences stand for … in TCGTCGGCAGCGTCAGATGTGTATAAGAGACAGTTTTTTTTTTTTTTTTTTTTTTTTT…TC
Settings: aptamer strand: ATP DNA aptamer (quencher-CACCTGGGGGAGTATTGCGGAGGAAGG + anchor), 100 nM annealed; ATP concentration: 500 uM; one replicate
Method in brief: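 Exposure to 500 uM ATP lasted 15 min at 22 °C before imaging, and a selection-buffer image was taken beforehand, for Cy3-labelled switching-strand clusters on a modified Illumina MiSeq flow-cell annealed to 100 nM quencher-labelled ATP aptamer. Five buffer/ATP cycles were run with NaOH stripping and re-annealing between them. The fluorescence ratio per cluster is summed target-cycle over summed buffer-cycle Cy3 intensity, averaged per switch-domain sequence. Clusters outside 100-1000 RFU were excluded.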

Sequence	switch fluorescence ratio
GGGCGCGCGC	1.05
CCACCCCGCA	2.67
CATTGTGCA	0.983
AATTGTGCGG	0.991
TTGAATTCAT	0.982
TCGTATCAGA	1.01
AAGGTTGCTA	3.18
CTGCCGGACT	1.07
GACTGCGCCA	1.87
CCGGGGATTT	1.08
GCGCACACAG	1.05
ATGAGGAAAT	2.06
CACATCTACT	1.11
GGTTACGTCA	1.09
GAATAATTTT	0.989
ACCTGGATCT	1.11
GGTTAGTTTT	0.994
GCCAGTGAAC	1.01
GCGGTGCATG	1.02
AGAGACAAAT	1.02
TAAAATGTAC	1.06
AGAGGTTGAA	0.963
ATAACTGTAG	1.08
ATAACAGATT	0.97
CGCTATTCTT	1.15
GCAAGGGCGA	1.01

Sequence	switch fluorescence ratio
TAGTCAGAGC	1.03
CATCTTCTCT	0.989
GGCGGGGCGT	0.989
ATAGTCGAAC	1.01
TTCTTAGCGC	1.02
CTAGCTGGGT	0.936
GGGTGAGTTG	0.962
TCTACCATGA	1.02
CATAGGGGAT	0.98
ATCGATTCTG	0.987
CGCGACCTTA	1.02
CCTAATCGTT	0.999
TGTTTCTTTG	0.997
TTGGTGATTA	1
GAGACTGTAA	1.04
TTCTGTCGGC	1.38
TTACCTATTA	0.97
TCAGTTGAT	1.01
CATGATTCGG	0.943
GGAGATGTAC	1.25
CTGTGAAAGA	1
TTGCGCACTT	0.951
GACGGCGGTG	1
TCTAAAGGAG	0.971
ATATGACAAT	1.02
TTAGGGCTGG	0.986

Sequence	switch fluorescence ratio
CTATAGGCGA	1.01
TACCGTGACC	1.23
ATGTGACTAT	0.998
TCGGCGGCTT	1
GATACCGCCC	2.54
GATGTCTGA	1.02
AGCTGAGTG	0.998
GGTTCCGAAG	1.04
GGGTCCTCTT	0.951
TAGAGCCGCA	1.01
TGAAGCATGA	1.05
CGCGGGGTCT	1.07
GCTGAAGGAC	0.966
CCCTGTTGGT	0.955
ATGAACGGGA	1.08
TGCACGTT	1.02
AGAGGTTCCG	0.908
ATAGCAGTGA	1.03
TTCACGGACA	1.45
TAGAGGGAGA	0.982
GCTAGCCTGA	1.03
TTCCAGCTAT	1.16
TCAACGTGCG	0.983
AATATTGCGT	0.98
GGTATGGAGA	0.968
TAAGGAGGAC	1.02

Sequence	switch fluorescence ratio
GCGTTAATA	1
CCATATAAGT	1.02
TTAAGTTAGA	1.01
TATGTTGAA	0.972
GTCCAATTCT	0.999
CGACTCAGCA	2.18
CCGGCTGAAT	1.03
CAGTCACAGA	0.983
GGGCTGCGGG	0.964
CGACCCGTGC	1.72
CGCGTTTAGC	1.05
TGTAGAATCT	0.986
ACGGCACGGT	1.11
TTTGTTGT	1
GGCTAGGTAA	0.967
GTGCATTAG	1.27
GGGCACAATT	1.04
GGCACTGAGG	1.05
AAGGGTAATT	1
TCTCCTGCTG	1.27
TTATACTCCT	1.29
ATTTTGTGCC	1.02
GAGATTATGT	0.957
ACATGCTCAG	1.07
AAGTTCAGT	1.02
TTTCTTCATT	0.974

Sequence	switch fluorescence ratio
TGACATGTCA	1.03
ATCGTAGGGG	1.07
GGGGGGACC	0.985
TCTCTCACCT	1.1
TCATCCTAG	1.07
GGATTGGGTC	0.948
CGCCCGGCCA	1.01
GATAGTTGTT	0.939
GGCACCCGAA	1.01
GACAACGATT	1.03
TAATTATTAG	1.07
TGCCCAGGGT	1.05
TCTGCGTAAA	1.03
ATTATTTCCA	1.02
ACGGCCAGCA	1.09
CGCATAGTCG	1.18
TATCCGGGAG	0.991
TATAAGTGGG	1.02
ACTTCGGTGC	1.14
TGCAGCCTTA	0.986
AGGTTAGTTG	1.01
AACGTACATC	1.65
TTGGCGCTAC	2.61
GCGCAAAAAT	1.05
GGGTTATCC	0.975
TATAACCATC	1.02

Sequence	switch fluorescence ratio
TACTGAGGCT	0.988
TACACAAGTT	0.996
TACGTATGTT	1.03
TAATGCCGAT	1.08
GTAGGCCTCG	0.949
GAAGGAGAAC	1.02
CATGCCACTG	0.963
AGCTAGATAT	1.03
CCAACGGTGG	1.06
GAGCAGAGCA	0.982
TGGAGGGTAT	0.982
GGTCCATCTT	1.02
GGGTAATGTC	0.956
TCAATAGTTT	0.993
GGGAAGGCGA	1.01
AGTACGTCTG	0.961
TCTGAGACTC	1.09
AGAGCGGGAA	1.01
CTGGCGTTGA	1.04
GATTTCGCAC	1.35
TCAAAGTGTG	1.05
CAGATTCGGG	1
CCCAAACCGC	1.18
